Some of the results follow.
B1: chr18:33598288:33598289:-_ENSMUSG00000042834_ENSMUST00000171533|mus_mus|motif|central (ssRNA)
RNA: GGGAGUUCUACAGUCCGACGAUCAGUCAGAAUGAUUAAAAACUGGUUUGAUGAAACCUAUUUGUCCACUGUAAAUUCUCGGAAGCCAGGCUUAGAGUCCCAUAGUUUCUUCUUAUAGUUGAUGAUUUACACAGAAAAAAAAAACAACAGAGGAUUGAGCAUCA
B2: chr10:121586544:121586545:+_ENSG00000198825_ENST00000369080|hu_mus|FALSE|FALSE (ssRNA)
RNA: GGGAGUUCUACAGUCCGACGAUCCGACUGCCUAAUCGAGGUGCUGACACAAUAAUCCCACAGCUUGGGAGAAUGUAAUCUAUUGGCCCUACGCUCUCUAAAGAAUUGGCUAGCUGCUUGUCUUCCUCCGACUUAGAAUUUGUACAACAGAGGAUUGAGCAUCA
B3: 13605823_13605943_2776_CDS_ENSG00000038219_ENST00000040738|human|control|control (ssRNA)
RNA: GGGAGUUCUACAGUCCGACGAUCUGUUCGUCGUUUCUCCUUGUGAACAACCUCUUCUGGUUUCAAAUUACUAUCCAUGUUAGUGGAGUCCAUAUCACACUUAUCUUCCGAAUAACUUUCACUUCUUCUCUGUAAUGUGAUACCCAACAGAGGAUUGAGCAUCA
B4: chr2:183853844:183853845:-_ENSG00000061676_ENST00000360982|hu_mus|FALSE|FALSE (ssRNA)
RNA: GGGAGUUCUACAGUCCGACGAUCGUGAAUGUGGAAAACUUCAUCCCGAAAGAGAGAGAGGCAAGAGCUACUCUGAAGAGCUAGCUUCCAAAGGUUCAGUGCGGUAGCCUCCGUAUUUAGCAUCCCAUGGCACAGAAUAAAGCCCAACAGAGGAUUGAGCAUCA
B5: 86505474_86507168_1115_CDS_ENSMUSG00000032418_ENSMUST00000034989|mouse|control|control (ssRNA)
RNA: GGGAGUUCUACAGUCCGACGAUCUUUUGAGUCAACCAACCAUAUCUUCUUUCUAGCAUUCUCCUUUGAUAAACCUUCUUUCUCCAUGGCCAUAACAACCAAGUGAGCAAUCCCCAAGGCAGCCUCUCCAGCUCCCUGGAACAGCAACAGAGGAUUGAGCAUCA
B6: chr8:28149726:28149727:+_ENSMUSG00000031483_ENSMUST00000033873|mus_mus|FALSE|FALSE (ssRNA)
RNA: GGGAGUUCUACAGUCCGACGAUCCUGGAGCUAUUAACCCAAGGUAAUUUAUCUAGUGGUAUCAUUUAUGGAAUAAUUACUAUAACAAGAAUCAUUUCUCAGUUAUAAAGGCUCAUUAAUGCCCUUGGGGCACACUGAAAAAAUCAACAGAGGAUUGAGCAUCA
B7: chr3:179287964:179287965:+_ENSG00000136518_ENST00000429709|hu_hu|hu_hu_hu_mus_True|28_88 (ssRNA)
RNA: GGGAGUUCUACAGUCCGACGAUCCUUGAGUGGUGAGAUGGCCUCCAUAUUCUCCCUGGGCACGCGGAGGGCAUUGGUGUCUAUGUAGUAGGUGGGCCCGCCCUGCUUGCCUUUAUCACCAUCAAUCUCCAUCAUUGUACUUCCCAACAGAGGAUUGAGCAUCA
B8: chr2:31072873:31072874:+_ENSMUSG00000000194_ENSMUST00000056433|mus_hu|FALSE|FALSE (ssRNA)
RNA: GGGAGUUCUACAGUCCGACGAUCUACGUGAGUCUUACAAGGCCAGGGGCGGGUCAGAGAAAAGCAGCGGGGUGAAGUGUGGAGUGUGGAAGCAGGGGUGCAGCAGUGUGCUAGAUCUGUUUCCUUUGAAGUACAGCAGCUUGGCAACAGAGGAUUGAGCAUCA
B9: chr17:55916980:55916981:-_ENSG00000181610_ENST00000313608|hu_hu|FALSE|FALSE (ssRNA)
RNA: GGGAGUUCUACAGUCCGACGAUCUCACAUAACUGCUUCUGUCAAACCAUGAUACUGAGCUUUGUGACAACCCAGAAAUAACUAAGAGAAGGCAAACAUAAUACCUUAGAGAUCAAGAAACAUUUACACAGUUCAACUGUUUAACAACAGAGGAUUGAGCAUCA
B10: chr9:37441256:37441257:-_ENSG00000168795_ENST00000307750|hu_mus|FALSE|FALSE (ssRNA)
RNA: GGGAGUUCUACAGUCCGACGAUCUGGCCCAGCCUCUGGACUCAACAGAUAAGGGGCCUCGCCCUCGAGCCUACAGUCACUGGUGGUGUUUGGGAGGUUGUCGUCAGUGCUCUGACUUGCACUGAAAUUACUCCCCCUGCUCUUCAACAGAGGAUUGAGCAUCA
B11: chr1:39333270:39333271:-_ENSG00000214114_ENST00000397572|hu_mus|motif|central (ssRNA)
RNA: GGGAGUUCUACAGUCCGACGAUCUUCUGCCAAUUCUAGGCGAAGCAGCUCUAUUUCUGGGUUUUCCGGGGUAGCAGCUCCGGAGUGAUGCUUUAAAAAAUCCAGAGCACUGGUGGGCUUCUCUGGUUCUUCAUAUAAGGCUACCAACAGAGGAUUGAGCAUCA
B12: 192194736_192206287_480_CDS_ENSG00000128641_ENST00000304164|human|control|control (ssRNA)
RNA: GGGAGUUCUACAGUCCGACGAUCCAGGACCGGGUUGGACUGUAAAAGCUGUUCUUUAACUUGAUUAACUUCUGCUCCUUUUCCACAAACAGCUGCCACAUAGGACAUGACAAGCUUACUGGCCUCUGUUUUUCCUGCUCCACUCAACAGAGGAUUGAGCAUCA
B13: 155451795_155451915_1284_3pUTR_ENSG00000116539_ENST00000392403|human|control|control (ssRNA)
RNA: GGGAGUUCUACAGUCCGACGAUCUCCCAGGAUCUUUAGUUACCAAUCCAACUGCUGUGCUGAUGGUUGGCUUUUUUAUUAAGUCCUUAUGUAUUAUUCCAGCUACAGAGCCAACACCUGCUUUCCUGAUCAAAUCCUUGCUAACAACAGAGGAUUGAGCAUCA
B14: chr19:7501953:7501954:-_ENSMUSG00000024758_ENSMUST00000025667|mus_mus|FALSE|FALSE (ssRNA)
RNA: GGGAGUUCUACAGUCCGACGAUCCGGAAGAAAUCCCACUCUUGCCCCAUACUAUUUAUUCAUAAGUUAAUCAUUAUUUCCUAACUUAAAAAUAAGGGCAAAAUUAUAAAUGGGAGCUGUAUACGAGUCCUUGGAACUGGAGAGCAACAGAGGAUUGAGCAUCA
B15: chr8:117878989:117878990:-_ENSG00000164754_ENST00000297338|hu_hu|hu_hu_hu_mus_True|48_98 (ssRNA)
RNA: GGGAGUUCUACAGUCCGACGAUCCCAGAGGCCCUCGUUUACUGAGAACAAAAUGUGCGUAGAACAUUUUUCUUAUUUGCUAUGAAAACAGAAGAAACCUGGAUCUCGGCGGGGAGCCGGGAGGGGUGGGUGGCCCGGGGAGGGCAACAGAGGAUUGAGCAUCA
B16: chr21:34923711:34923712:+_ENSG00000159140_ENST00000381679|hu_mus|FALSE|FALSE (ssRNA)
RNA: GGGAGUUCUACAGUCCGACGAUCCAUCUGAGAAUCCAUAGUGUUGGAUGCUAGCAUCUGGGAGUCCAUGGUAUUGGAUGCUAACAUAUGGGUCUCCAUGGUGUUAGAAGCUAGCAUAUGGGAUUCUUGGGCCAUCAAGGGGUCCAACAGAGGAUUGAGCAUCA
B17: chr19:8871807:8871808:-_ENSMUSG00000071662_ENSMUST00000096261|mus_hu|FALSE|FALSE (ssRNA)
RNA: GGGAGUUCUACAGUCCGACGAUCCACGACCUCCCCUUUAAAUGGCCGGAAAACAAUGGCCUUGUACUUAACUGGAUAAAGGACAAAGCCUCGGCCUGGCUGGAUCACACCAGCACCAAUAUUGUCAAUGGUGGUGACAGCAAUCAACAGAGGAUUGAGCAUCA
B18: chr12:118673417:118673418:-_ENSG00000135090_ENST00000392533|hu_hu|motif|central (ssRNA)
RNA: GGGAGUUCUACAGUCCGACGAUCAGGUGUGCCCACGAAGGAGUUGGCAGGAGAAGCCAUUGAAGCAGAUCCAAAAUCAGCGGGUUUUACCUGACCUGGCUCUGUUAGAAGAAUAUUUCCUGCUUUAAUAUCCCUAUGAAUCAACAACAGAGGAUUGAGCAUCA
B19: 24911559_24912643_785_3pUTR_ENSMUSG00000006476_ENSMUST00000102931|mouse|control|control (ssRNA)
RNA: GGGAGUUCUACAGUCCGACGAUCCCAGGUACGGAUGGGGACAUCAUCAGACACUCCAUCAACGCUAUACAUCCUUUCCAGCUUCUUGUGGCGGCCAGGAGCCUCAGGUAGAGGUGGCUGCUCCAGCCCAAAGGCCCGAGAAGACAACAGAGGAUUGAGCAUCA
B20: chr17:60770872:60770873:+_ENSG00000011028_ENST00000303375|hu_hu|hu_hu_hu_mus_True|1_98 (ssRNA)
RNA: GGGAGUUCUACAGUCCGACGAUCUCUUUAAAAAAAAUUCCUUUUUUACAAACAAUAAUAGCACAUUUCGAGAAUCAAGAACUACAAUAGAGGGUCCGCUUUGAGUUUUUGUUCACAUCGUCCUGCACUGGGACACGACCAGGACAACAGAGGAUUGAGCAUCA
B21: 44549918_44550445_1859_CDS_ENSG00000138078_ENST00000409411|human|control|control (ssRNA)
RNA: GGGAGUUCUACAGUCCGACGAUCAGUAUAACUUACAAUUCCUUUCAGAGGUACCCGUUCAUCGUUUUCAUAUGCCGUUAUGUGAAUUGAAGGAUAAUGCUGAGGUUUAAUAUUUUGAUAGGGACAGUAACGUUUUAUGUAGUUCAACAGAGGAUUGAGCAUCA
B22: 54633415_54633535_2776_3pUTR_ENSG00000094916_ENST00000209875|human|control|control (ssRNA)
RNA: GGGAGUUCUACAGUCCGACGAUCAGGCCUUUAAUUCCUUCAGAGAGAGAAGGAAUAUAGAGAUAAAACUCCCACCCACUUGAGGUAUGGUUUAUGAGCUCUUGCCCAAUCACAUUACCAUUCAGAAGGAUUUUCCUGGCUGACCAACAGAGGAUUGAGCAUCA

Target: T1, UNK ZnF1-3 (human, UniProt Q9C0B0 31-174)
T1 sequence: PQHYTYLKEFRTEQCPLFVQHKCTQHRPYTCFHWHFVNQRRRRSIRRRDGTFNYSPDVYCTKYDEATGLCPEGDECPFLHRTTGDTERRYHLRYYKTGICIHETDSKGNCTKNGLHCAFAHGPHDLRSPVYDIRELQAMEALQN
Experiment: nsRBNS (natural sequence RNA bind-n-seq); RBNS binding buffer (assumed for nsRBNS): 25 mM Tris pH 7.5, 150 mM KCl, 3 mM MgCl2, 0.01% Triton X-100, 500 ug/ml BSA, 20 U/ml SUPERase-In, 4 C; UNK is unkempt and MSI1 is Musashi-1; names of the RNAs are library labels; protein concentration not given here; high values mean tight binding

| Binder | binding signal |
| --- | --- |
| B1 | 1.05 enrichment R |
| B2 | 1.39 enrichment R |
| B3 | 0.465 enrichment R |
| B4 | 1.56 enrichment R |
| B5 | 1.22 enrichment R |
| B6 | 0.948 enrichment R |
| B7 | 0.784 enrichment R |
| B8 | 1.93 enrichment R |
| B9 | 0.619 enrichment R |
| B10 | 0.39 enrichment R |
| B11 | 0.731 enrichment R |
| B12 | 0.716 enrichment R |
| B13 | 0.765 enrichment R |
| B14 | 0.803 enrichment R |
| B15 | 1.87 enrichment R |
| B16 | 1.08 enrichment R |
| B17 | 1.04 enrichment R |
| B18 | 0.664 enrichment R |
| B19 | 1.09 enrichment R |
| B20 | 1.21 enrichment R |
| B21 | 1.34 enrichment R |
| B22 | 0.903 enrichment R |
